Several values for one entry are separate records, joined by “and”; a condition that tells them apart may be missing. Equal entries are not always repeated. Whole data set: some 13,000 compounds, median “IFI” near 4, cut for the highest 2% near 17. This is one part of the list.
Assay: GSK_TCMDC: Inhibition Frequency Index (IFI). The number of non-kinase HTS assays where a compound showed > 50 % inhibition, expressed as a percentage of the number of such assays in which the compound was tested (-0 is zero)
Format: functional

Row | Compound | IFI
1 | CC(=O)N(Cc1cccc(-c2ccc(CNCCc3ccccc3)cc2)c1)C1CCN(Cc2ccccc2)CC1 | 7.46%
2 | O=C(Cc1cc(=O)oc2cc(O)ccc12)N1CCC(CN2CCC(c3c[nH]c4ccccc34)CC2)CC1 | 4.41%
3 | CC[C@H]1CN2CC[C@@H]1C[C@H]2[C@H](O)c1cc(N2CCC(C(N)=O)CC2)nc2ccc(OC)cc12 | 1.54%
4 | S=C(Nc1ccccc1Cl)NC1CCC(CN2CCC(c3c[nH]c4ccccc34)CC2)CC1 (stereo unspecified) | 4.41%
5 | O=C(C=Cc1ccccc1Br)NC1CCC(CN2CCC(c3c[nH]c4ccccc34)CC2)CC1 (stereo unspecified) | 3.73% and 4.48%
6 | Cc1c(C(=O)N[C@@H](C)c2ccccc2)c2cc(O)c(Br)cc2n1C1CCCCC1 | 3.85%
7 | CCCCCCCc1cc(=O)c2ccccc2[nH]1 | 2.08%
8 | O=C(/C=C/c1cc([N+](=O)[O-])ccc1Cl)NC1CCC(CN2CCC(c3c[nH]c4ccccc34)CC2)CC1 (stereo unspecified) | 3.73%
9 | O=C(C=Cc1ccccc1C(F)(F)F)NC1CCC(CN2CCC(c3c[nH]c4ccccc34)CC2)CC1 (stereo unspecified) | 4.51% and 4.48%
10 | Cc1[nH]c2cc(Cl)ccc2c1C1=CCN(CCN2CCOc3c(Br)cccc3C2=O)CC1 | 3.65%
11 | CC(Cc1ccc(NC(=O)CCCc2ccccc2)cc1)NCCc1cccc(Cl)c1 (stereo unspecified) | 4.29%
12 | N#Cc1c(F)cc(N2CCC(NCC[C@H](N)Cc3ccc(F)c(F)c3)CC2)cc1F | 21.9%
13 | Oc1ccc(CN2CCN(CCOC(c3ccc(F)cc3)c3ccc(F)cc3)CC2)cc1Cl | 7.09%
14 | COc1cccc(C(=O)C2CC2CN2CC=C(c3c[nH]c4cccc(Br)c34)CC2)c1 (stereo unspecified) | 3.31%
15 | Cc1ccc(C2(O)CC3CCC(C2)N3C)cc1 (stereo unspecified) | -0%
16 | CN(c1ccnc(Nc2ccc(CS(C)(=O)=O)cc2)n1)C1CCN(Cc2ccccc2)CC1 | 4.58%
17 | COc1ccc(C(=O)C2CC2CN2CC=C(c3c[nH]c4cccc(Br)c34)CC2)cc1 (stereo unspecified) | 11.9%
18 | CC1=C(C(=O)NC2CCC(CN3CCC(c4c[nH]c5ccccc45)CC3)CC2)Cc2ccccc21 (stereo unspecified) | 7.86% and 6.43%
19 | C#CCOc1ccc(CC(C)NCC(O)c2cccc(C(F)(F)F)c2)cc1 (stereo unspecified) | 4.41% and 6.47%

Row | Compound | IFI
20 | C/C=C1\CN2CC[C@H]1C[C@H]2[C@H](O)c1ccnc2ccc(O)cc12 | -0%
21 | CCC(C)(C)NC(C)C(O)c1ccc(C(F)(F)F)cc1 (stereo unspecified) | 0.8%
22 | COc1ccc(OC)c(CNCC(O)c2cc(C(F)(F)F)cc(C(F)(F)F)c2)c1 (stereo unspecified) | 2.61%
23 | O=C(/C=C/c1ccc(Cl)c(Cl)c1)NC1C2CCC1CC(CN1CCC(c3c[nH]c4ccccc34)CC1)C2 (stereo unspecified) | 5.97%
24 | CCc1ccc(CN2CCC(CN(C(=O)c3ccccc3)c3ccc(Cl)cc3)CC2)cc1 | 7.2%
25 | CCCCC1(NC(=O)[C@H](CC(C)C)Nc2ccc(C#N)c3ccccc23)CCCCC1 | 0.97%
26 | Brc1cnc(NC2=NCCN2)c(Br)c1 | 1.46%
27 | CC1(C)N=C(N)N=C(N)N1c1ccc([N+](=O)[O-])cc1 | 0.73%
28 | Cc1c(C)c2c(c(C)c1O)CC[C@@](C)(C(=O)N1CCC(CN3CCC(c4c[nH]c5ccccc45)CC3)CC1)O2 | 6.87%
29 | CCC1(C)CC(CCNCc2ccccc2O)(c2ccc(C)cc2)CCO1 (stereo unspecified) | 1.47%
30 | CCOC(=O)c1ccc(CC(C)NCC(O)c2cccc(C(F)(F)F)c2)cc1 (stereo unspecified) | 2.9%
31 | CC[C@H]1CN2CC[C@H]1C[C@H]2[C@H](O)c1cc(-c2ccccc2C(F)(F)F)nc2ccc(OC)cc12 | 2.86%
32 | COc1ccc(OC)c(C(O)C(C)NCc2cc(Cl)ccc2O)c1 (stereo unspecified) | 0.71%
33 | COC(=O)c1ccc(CC(C)NCC(O)c2cccc(OC(F)(F)F)c2)cc1 (stereo unspecified) | 4.38%
34 | FC(F)(F)c1cccc(N2CCC(CN3CCC(c4c[nH]c5ccccc45)CC3)CC2)n1 | 4.62%
35 | CC[C@H]1CN2CC[C@H]1C[C@H]2[C@@H](O)c1cc(OCCCN(C)C)nc2ccc(OC)cc12 | 0.71%
36 | CC[C@H]1CN2CC[C@H]1C[C@@H]2[C@@H](O)c1ccnc2ccccc12 | 1.5%
37 | Cc1cc(N)nc2ccc(CNCCc3ccccc3Br)cc12 | 6.43%
38 | COCCSc1ccc(CC(C)NCC(O)c2cccc(Cl)c2)cc1 (stereo unspecified) | 4.35%

Row | Compound | IFI
39 | CC(C)CNCc1ccc(-c2ccc(CN(C(=O)NC3CCCCC3)C3CCN(Cc4ccccc4)CC3)cc2)cc1 | 8.46%
40 | Oc1ccc(CN2CCN(CCOC(c3ccccc3)c3ccccc3)CC2)cc1Cl | 3.57%
41 | O=C(CCC(=O)c1ccc2c3c(cccc13)CC2)NC1CCC(CN2CCC(c3c[nH]c4ccccc34)CC2)CC1 (stereo unspecified) | 3.76%
42 | O=C(/C=C/c1cc(C(F)(F)F)ccc1F)N1CCC(CN2CCC(c3c[nH]c4ccccc34)CC2)CC1 | 1.5%
43 | COc1ccc(C(=O)C2CC2CN2CC=C(c3c[nH]c4ccc(OC)nc34)CC2)cc1 (stereo unspecified) | 2.94%
44 | O=C(/C=C/c1ccc(C(F)(F)F)cc1)NC1CCC(CN2CCC(c3c[nH]c4ccccc34)CC2)CC1 (stereo unspecified) | 7.09% and 5.88%
45 | O=C(NC1CCC(CN2CCC(c3c[nH]c4ccccc34)CC2)CC1)c1csc(-c2cccc(Cl)c2Cl)n1 (stereo unspecified) | 4.29%
46 | O=C(/C=C/c1ccc(Cl)c(Cl)c1)N1CCC(CN2CCC(c3c(-c4ccccc4)[nH]c4ccccc34)CC2)CC1 | 6.47%
47 | COCCNCc1ccc(-c2ccc(CN(C(=O)Nc3ccccc3)C3CCN(Cc4ccccc4)CC3)cc2)cc1 | 5.88%
48 | Cc1c(C)c2c(c(C)c1O)CC[C@@](C)(C(=O)NC1CCC(CN3CCC(c4c[nH]c5ccccc45)CC3)CC1)O2 (stereo partly specified) | 7.52%
49 | O=C(CC1CCCC1)N(CC1CCN(Cc2ccc(C(F)(F)F)cc2)CC1)c1ccc(N2CCOCC2)c(F)c1 | 3.1%
50 | COc1cc2nc(N(C)C3CCN(Cc4ccccc4)CC3)nc(N)c2cc1OC | 3.25%
51 | O=C(/C=C/c1ccc(Cl)c(Cl)c1)NC1CCC(CN2CCC(c3c[nH]c4ccccc34)CC2)CC1 (stereo unspecified) | 5.26%
52 | Cc1ccc(CC(C)NCC(O)c2cccc(Cl)c2)cc1F (stereo unspecified) | 2.82%
53 | Cn1nc(-c2ccc(S(=O)(=O)N3CCC(CN4CCC(c5c[nH]c6ccccc56)CC4)CC3)s2)cc1C(F)(F)F | 4.26%
54 | CCCc1cc([C@@H](O)[C@@H]2C[C@@H]3CCN2C[C@@H]3CC)c2ccccc2n1 | 1.46%
55 | O=C(/C=C/c1ccc(Cl)c(Cl)c1)NCC1CCC(CN2CCC(c3c[nH]c4ccccc34)CC2)CC1 (stereo unspecified) | 9.86%
56 | O=C(Nc1ccc(Oc2ccccc2)cc1)NC1CCC(CN2CCC(c3c[nH]c4ccccc34)CC2)CC1 (stereo unspecified) | 7.86%
